Measured values from PubChem BioAssay AID624173 (National Center for Advancing Translational Sciences (NCATS), 2012).
The campaign covered roughly 410,000 compounds. About 490 (0.12%) were called active. Inconclusive means that the source gave no clear call. Such entries were picked first, then a sample of the others. Calls come from the whole dose curve; as a rule, active = well fitted inhibition curve with a large enough effect; inconclusive = small, poorly fitted or top-dose-only effect; inactive = flat fitted curve, though single readings scatter. Potencies of inconclusive entries are doubtful fits and often do not repeat.

Molecular target: pyruvate kinase (Trypanosoma brucei) (UniProt Q57TT1)
Assay: qHTS of Trypanosoma Brucei Inhibitors; note: nearly all actives have a fitted effect of over 50% in size
Details: TbPYK enzyme, Kinase-Glo Plus ATP luminescence, 45 min; series mostly up to 76.8 µM
Procedure, shortened: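 Luminescence from Kinase-Glo Plus, added after a 45-minute room-temperature reaction, served as the end-point read-out. The enzyme and substrate were preincubated with compound before ADP (130 uM final) initiated turnover. Concentration-effect curves came from normalized qHTS data.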
Potency is the fitted concentration of half-maximal effect; tags give direction and shape of the fitted curve.

Row | SMILES | Potency
1 | CCCCCCC(=O)Oc1cccc(C2=CC(=O)CC(C)(C)C2=O)c1 | inactive
2 | CCCCn1c(SCC(=O)c2ccc(OCC)cc2)nc2cc(S(N)(=O)=O)ccc21 | inconclusive: 39.8 µM [inhibitor, partial curve, poor fit]
3 | Cc1ccsc1C(=O)Nc1ccc2c(c1)OCCO2 | inconclusive: 28.2 µM [inhibitor, single point]
4 | C=C(C)Cn1c(-c2cccc([N+](=O)[O-])c2)n[nH]c1=S | inconclusive: 5.01 µM [inhibitor, full curve, poor fit]
5 | COc1ccc(S(=O)(=O)N(CC(=O)NCCSc2ccc(C)cc2)c2ccc(C)cc2)cc1 | inactive
6 | COc1ccc(-n2ncc3c(NCCCN4CCOCC4)ncnc32)cc1 | inconclusive: 50.1 µM [inhibitor, single point]
7 | Cn1c(CNS(=O)(=O)c2ccc(Cl)cc2)n[nH]c1=S | inconclusive: 31.6 µM [inhibitor, partial curve]
8 | Cc1onc(-c2c(F)cccc2Cl)c1-c1nnc(-c2ccc(C(F)(F)F)cc2)o1 | inactive
9 | COc1ccc(NC(=O)c2c(NCc3ccc(C)o3)sc3c2CCCCC3)c(OC)c1 | inconclusive: 17.8 µM [inhibitor, partial curve, poor fit]
10 | COc1cccc(/C=N/NC(=S)Nc2cccc(C(=O)O)c2)c1O | inconclusive: 31.6 µM [inhibitor, partial curve]
11 | Cc1cc2c(=O)n(Cc3ccco3)c(SCC(=O)NCc3ccco3)nc2s1 | inconclusive: 50.1 µM [inhibitor, single point]
12 | CCN1CCN(c2nc(C)nc3c2sc(=S)n3C)CC1 | inconclusive: 3.16 µM [inhibitor, partial curve, poor fit]
13 | Cc1ccc(-c2cc(C(=O)NCc3ccco3)c3ccccc3n2)s1 | inconclusive: 25.1 µM [inhibitor, partial curve, poor fit]
14 | O=C(NN=C1CCCCCC1)c1cc(-c2ccccc2)nc2ccccc12 | inconclusive: 35.5 µM [inhibitor, partial curve, poor fit]
15 | O=C(CCc1ccc(CCC(=O)c2cccs2)s1)c1cccs1 | inactive
16 | S=c1[nH]nc(Cn2nnc3ccccc32)n1-c1ccccc1 | inconclusive: 28.2 µM [inhibitor, partial curve, poor fit]
17 | O=[N+]([O-])c1cccc(S(=O)(=O)Nc2ccc(-c3ccc(N4CCOCC4)nn3)cc2)c1 | inactive
18 | O=C(NCC1CCCO1)c1ccc2c(c1)N(Cc1ccccc1)C(=O)CS2=O (configuration not stated) | inconclusive: 50.1 µM [inhibitor, single point]
19 | CC(C)(C)OC(=O)N1O[C@H]2CC1[C@@H]1[C@@H]2N=NN1CCc1ccncc1 | inconclusive: 10 µM [inhibitor, partial curve]
20 | COc1ccc(OC)c(NC(=O)c2c(NCc3cccs3)sc3c2CCCCC3)c1 | inconclusive: 25.1 µM [inhibitor, partial curve]
21 | CCN(CC)c1ccc(NC(=O)c2c(C)nn(-c3ccc(F)cc3)c2-n2cccc2)c(C)c1 | inconclusive: 8.91 µM [inhibitor, partial curve, poor fit]

Row | SMILES | Potency
22 | Cc1ccc(C(C)C)c(O)c1C(=O)O | inactive
23 | CC1CCN(C(=O)Cn2c(=O)n(Cc3ccc4c(c3)OCO4)c(=O)c3ccccc32)CC1 | inactive
24 | CC(C)(C(=O)c1ccccc1)/[N+]([O-])=C/c1ccc(Br)cc1 | inconclusive: 39.8 µM [inhibitor, partial curve, poor fit]
25 | CCOC(=O)c1scc(-c2ccccc2)c1S(=O)(=O)N1CCN(c2ccc(Cl)cc2)CC1 | inconclusive: 31.6 µM [inhibitor, partial curve]
26 | O=C(C1=C[C@@H](c2ccc3c(c2)OCO3)C[C@@H](OCCCCO)O1)N1CCN(Cc2ccc3c(c2)OCO3)CC1 | inactive
27 | NNc1ccc([N+](=O)[O-])c2[nH][nH]c(=O)c12 | inconclusive: 28.2 µM [inhibitor, partial curve]
28 | CC(=O)c1cccc(OCc2cc(C(=O)N(C)Cc3ccc(C)o3)no2)c1 | inconclusive: 28.2 µM [inhibitor, partial curve]
29 | O=C(Nc1ccc(Cl)cc1)C1c2cccc[n+]2CC(=O)N1Cc1ccc2c(c1)OCO2 (configuration not stated) | inconclusive: 50.1 µM [inhibitor, single point]
30 | COc1cc(C2Nc3cccc4cccc(c34)N2)cc(OC)c1O | inactive
31 | CCc1ccc(S(=O)(=O)c2nnn3c2nc(Nc2cccc(C)c2C)c2sccc23)cc1 | inactive
32 | COc1ccccc1NC1=C(NC(C)=O)C(=O)c2ccccc2C1=O | inconclusive: 44.7 µM [inhibitor, single point]
33 | COC(=O)c1c[nH]c2c1-c1cc(C(=O)OCc3ccccc3)n(S(=O)(=O)c3ccc(C)cc3)c1C(=O)C2=O | inactive
34 | COc1ccc(C2Nc3ccccc3NC3=C2C(=O)CC(C)(C)C3)cc1O (configuration not stated) | inconclusive: 39.8 µM [inhibitor, single point]
35 | O=C(NCc1n[nH]c(=S)n1Cc1ccccc1)c1ccc(Cl)cc1Cl | inconclusive: 12.6 µM [inhibitor, partial curve, poor fit]
36 | Cc1ccc(-c2[nH]c3ccccc3c2C(C[N+](=O)[O-])c2ccco2)cc1 (configuration not stated) | inactive
37 | CCn1c2ccccc2c2cc(/C=N/n3cn[nH]c3=S)ccc21 | inconclusive: 2 µM [inhibitor, full curve, poor fit]
38 | CCOc1ccc2nc(NC(=O)c3cccn(Cc4ccc(Cl)cc4)c3=O)sc2c1 | inactive
39 | CC(C)(C)n1nnnc1C(c1ccncc1)N1CCN(c2ccc(O)cc2)CC1 (configuration not stated) | inconclusive: 31.6 µM [inhibitor, partial curve]
40 | CCOC(=O)c1c(-c2ccccc2)csc1NC(=O)c1cc(-c2cccc(OC)c2)on1 | inconclusive: 20 µM [inhibitor, partial curve]
41 | COc1ccccc1NC(=O)Cn1c(=O)n(-c2cccc(C)c2)c(=O)c2c1c1cc(C)ccc1n2C | inactive
42 | Cn1ccnc1C(O)c1cc(C(C)(C)C)c(O)c(C(C)(C)C)c1 (configuration not stated) | inconclusive: 17.8 µM [inhibitor, partial curve, poor fit]
